Measurements from patent publication US8158586B2, “Inhibitors of protein kinases and uses thereof” (priority 2005, dated 2012).
Several values for one entry are separate records, joined by “and”; a condition that tells them apart may be missing. Equal values may be shown once. Entries after “also recorded” stand apart in the source; their conditions may differ. At least one structure is not confirmed: it was looked up by name or label, or the drawing left a doubt. Some compounds share one wording; it may come from a single statement. Some entries share one result that the patent states for a list of compounds. Residues, ends and D or L forms follow the SMILES beside them.

Experiments:
[1] = tested on: MCF-7 breast cancer cell line; assay: Cell death at 24 h after pinocytic loading, MCF-7; assay type: cell-based
[2] = tested on: PKCα expression in H-661 NSCLC cells; assay: Expression of PKCα in H-661 cells, flow cytometry; assay type: cell-based
Method: (§1) The effect of compounds 1 to 10 on doxorubicin-induced expression of PKCα in LS180 colon cancer cells and H-661 NSCLC cells was investigated. Cells were exposed to doxorubicin (50 ng/mL) for 3 days prior to exogenous treatment with the PKI compounds at a concentration of 5 μM. Results were acquired by flow cytometry after labelling of the cells with the PKC-alpha #sc 208 antibody.
(§2) The protocol used for fixing the cells for flow cytometry is as follows. A minimum of 1.0×10^6 cells was used in each instance. Cells were trypsinized and spun down at 1,000/5 min at 4° C. All the medium was removed and the cells resuspended in 500 μl of 1×PBS, pH 7.1. The cell suspension was added into 5 mls of 1% paraformaldehyde/PBS on ice and fixed for 15 min on ice. Cells were then centrifuged at 1,000/5 min and resuspended in 10 mls of 1×PBS. Cells were centrifuged again at 1,000/5 min and resuspended in 2 mls of 70% ETOH and kept at −20° C. until needed (up to 1 week). At which time, 2 mls of 1×PBS containing 1% BSA/0.02% NaN3 was added to each tube and the cells were left on ice for 5 min to give the cells time to rehydrate. Cells were then centrifuged at 1,000/5 min and the ETOH/PBS mix removed. The cells were resuspended in 5 mls of 1×PBS and allowed to sit on ice for 5 min. This step was repeated once, then the cells were centrifuged at 1,000/5 min and resuspended in 1 ml of 1×PBS containing 1% BSA/0.02% NaN3 and 5% serum. Blocking was conducted for 30 min at room temperature with inversion every 10 min, then the primary antibody was added directly to each cell tube at the desired concentration and incubated for 1 hr at room temperature inverting every 10 min. Cells were centrifuged at 1,000/5 min, the primary antibody removed and the cells resuspended in 5 mls of 1×PBS. This step was repeated once. Cells were centrifuged at 1,000/5 min and resuspended in 1 ml of 1×PBS w/1% BSA and 0.02% NaN3 (that contains 5% serum) and the secondary antibody was added. Tubes were protected from the light and incubated for 1 hr at room temperature inverting every 10 min. Cells were then centrifuged at 1,000/5 min, the secondary antibody removed and the cells resuspended in 5 mls of 1×PBS. This step was repeated once and then the cells were centrifuged at 1,000/5 min and resuspended in 1 ml of 1×PBS w/1% BSA and 0.02% NaN3 (with the 5% serum added). Tubes were kept on ice until needed for flow cytometry.

[3] = tested on: PKCα expression in LS180 colon cancer cells; assay: Expression of PKCα in LS180 cells, flow cytometry; assay type: cell-based; conditions: LS180
Method: as §1, §2

[4] = tested on: IMR-32 neuroblastoma cell line; assay: Cell death at 24 h after pinocytic loading, IMR32; assay type: cell-based, human
[5] = tested on: MRP-1 expression in H-661 NSCLC cells; assay: MRP-1 expression in H-661 NSCLC cells, flow cytometry; assay type: cell-based
Method: as §2
(§3) In view of the key role of the Pgp170 and MRP-1 proteins in MDR, the effect of the PKI compounds on expression of these proteins in LS180 colon cancer cells and H-661 NSCLC cells was investigated. Cells were exposed to doxorubicin (50 ng/mL) for 3 days prior to exogenous treatment with the PKI compounds at a concentration of 5 μM. Results were acquired by flow cytometry, conducted as outlined in Example 17 above, after labelling of the cells with the appropriate antibody (either P-gp #sc 1517 or MRP-1 #sc 7774). The number of cells individually analysed amounted to approximately 50,000 with a statistical error of about 0.08%.
(§4) The increase in the expression of P-gp and MRP-1 was assessed by comparing the % of cells expressing the protein in question in the presence and absence of doxorubicin (i.e. the ratio A/B in the Tables).

[6] = tested on: H-661 non-small cell lung cancer cell line; assay: Cell death at 24 h after pinocytic loading, H661; assay type: cell-based
[7] = tested on: MRP-1 expression in LS180 colon cancer cells; assay: MRP-1 expression in LS180 colon cancer cells, flow cytometry; assay type: cell-based
Method: as §2, §3, §4

[8] = tested on: T-24 bladder cancer cell line; assay: Cell death at 24 h after pinocytic loading, T24; assay type: cell-based
[9] = tested on: U-251 glioblastoma cell line; assay: Cell death at 24 h after pinocytic loading, U251; assay type: cell-based, human
[10] = tested on: LNCap prostate cancer cell line; assay: Cell death at 24 h after pinocytic loading, LnCAP; assay type: cell-based
[11] = tested on: LS-180 colon cancer cell line; assay: Cell death at 24 h after pinocytic loading, LS180; assay type: cell-based
pERK1/2 = pERK1/2 in serum-stimulated IMR-32 neuroblastoma cells, immunofluorescence (indirect MEK1/2); assay type: cell-based, human; conditions: 5 mM loading, control stimulated 105.3, control starved 59.5
PKC isoforms = assay: PKC isoform panel, PepTag assay; assay type: biochemical
[12] = tested on: MDA-MB-231 breast cancer cell line; assay: Cell death at 24 h after pinocytic loading, MDA-MB-231; assay type: cell-based
[13] = tested on: Pgp expression in H-661 NSCLC cells; assay: Pgp expression in H-661 NSCLC cells, flow cytometry; assay type: cell-based
Method: as §2, §3, §4

MDA-MB-231 cells = assay: Invasion of MDA-MB-231 cells through Matrigel matrix; assay type: cell-based
[14] = tested on: Pgp expression in LS180 colon cancer cells; assay: Pgp expression in LS180 colon cancer cells, flow cytometry; assay type: cell-based
Method: as §2, §3, §4

STAT-3 = STAT-3 phosphorylation (Ser727, Tyr 705) in IL-6 treated U-251 cells, immunocytochemistry; assay type: cell-based, human; conditions: 5 mM loading
[15] = tested on: DU-145 prostate cancer cell line; assay: Cell death at 24 h after pinocytic loading, Du145; assay type: cell-based
[16] = tested on: SKOV-3 ovarian cancer cell line; assay: Cell death at 24 h after pinocytic loading, SKOV-3; assay type: cell-based
Bcl-2 = assay: Bcl2 sublocalization, immunolabelling; assay type: cell-based

In the case of `CC(=O)N[C@@H](Cc1ccccc1)C(=O)N[C@@H](CCCNC(=N)N)C(=O)N[C@@H](CCCNC(=N)N)C(=O)N[C@@H](CS)C(=O)N[C@@H](Cc1ccccc1)C(=O)N[C@@H](CCCNC(=N)N)C(=O)N[C@@H](CC(C)C)C(N)=O` [Compound 4] (Ac-FRRCFRL-NH2; N-terminus and C-terminus assumed), the “Percentage Cell Death at 24 h, MCF-7” value ([1]; 5 mM) is reported as 48%, the “Percentage Cell Death at 24 h, MCF-7” value ([1]; 10 mM) is reported as 60% and the “reduction in PKCα intracellular content, cells exposed to doxorubicin” value [2] is reported as ≤ 50%. The “expression of PKCα, without doxorubicin” value ([2]; 5 μM) was “did not have any effect”, the “PKCα expression, cells exposed to doxorubicin” value ([3]; doxorubicin 50 ng/mL, tested concentration) was “repressed the enzyme expression” and the “intracellular level of PKCα, cells not exposed to doxorubicin” value ([3]; exogenous treatment, 5 μM) was “indications of a dose response”. The “Percentage Cell Death at 24 h, IMR32” value ([4]; 5 mM) was 11%, the “Percentage Cell Death at 24 h, IMR32” value ([4]; 10 mM) was 24% and the “MRP-1 expression” value ([5]; cells exposed to doxorubicin) was “exhibited a dose response”. For the same compound, the “Cells expressing MRP-1, +Doxorubicin (A)” value ([5]; compound 0.5 μM) was 52.09% and 72.68%, the “Cells expressing MRP-1, No Doxorubicin (B)” value ([5]; compound 0.5 μM) was 27.36% and 39.65% and the “Cells expressing MRP-1, +Doxorubicin (A)” value ([5]; compound 1 μM) was 65.17% and 61.66%. For the same compound, the “Cells expressing MRP-1, +Doxorubicin (A)” value ([5]; compound 5 μM) was 66.4% and 70.18%, the “Percentage Cell Death at 24 h, H661” value ([6]; 5 mM) was 16% and the “Percentage Cell Death at 24 h, H661” value ([6]; 10 mM) was 20%. The “Cells expressing MRP-1, +Doxorubicin (A)” value ([7]; compound 0.5 μM) was 17.95% and 17.15%, the “Cells expressing MRP-1, No Doxorubicin (B)” value ([7]; compound 0.5 μM) was 7.55% and 6.13% and the “Cells expressing MRP-1, +Doxorubicin (A)” value ([7]; compound 1 μM) was 27.17% and 14.3%. The “Cells expressing MRP-1, No Doxorubicin (B)” value ([7]; compound 1 μM) was 4.77% and 7.71%, the “Cells expressing MRP-1, +Doxorubicin (A)” value ([7]; compound 5 μM) was 31.01% and 20.27% and the “Cells expressing MRP-1, No Doxorubicin (B)” value ([7]; compound 5 μM) was 5.52% and 5.99%. The “Percentage Cell Death at 24 h, T24” value ([8]; 5 mM) was 23%, the “Percentage Cell Death at 24 h, T24” value ([8]; 10 mM) was 29% and the “Percentage Cell Death at 24 h, U251” value ([9]; 5 mM) was 70%. The “Percentage Cell Death at 24 h, U251” value ([9]; 10 mM) was 76%, the “Percentage Cell Death at 24 h, LnCAP” value ([10]; 5 mM) was 70% and the “Percentage Cell Death at 24 h, LnCAP” value ([10]; 10 mM) was 76%. For the same compound, the “Percentage Cell Death at 24 h, LS180” value ([11]; 5 mM) was 51%, the “Percentage Cell Death at 24 h, LS180” value ([11]; 10 mM) was 53% and the “cell death induced in colon cancer cell line LS-180” value ([11]; short term, 24 h) was “very sensitive to cell death; also recorded: powerful short-term activity”. The “pERK1/2 FL Density” value (pERK1/2) was 80.5, the “inhibition of PKC isoforms” value (PKC isoforms) was “very potent inhibitors of all the PKCs isoforms except PKC epsilon and zeta” and the “Percentage Cell Death at 24 h, MDA-MB-231” value ([12]; 5 mM) was 48%. For the same compound, the “Percentage Cell Death at 24 h, MDA-MB-231” value ([12]; 10 mM) was 52%, the “P-gp expression” value ([13]; cells exposed to doxorubicin) was “moderate decrease with dosage” and the “Cells expressing Pgp, +Doxorubicin (A)” value ([13]; compound 0.5 μM) was 51.12% and 64.81%. The “Cells expressing Pgp, +Doxorubicin (A)” value ([13]; compound 1 μM) was 63.71% and 69.96%, the “Cells expressing Pgp, No Doxorubicin (B)” value ([13]; compound 1 μM) was 6.68% and 16.58% and the “Cells expressing Pgp, +Doxorubicin (A)” value ([13]; compound 5 μM) was 61.68% and 53.18%. The “% Inhibition of Invasion” value (MDA-MB-231 cells; % invasion in control cells minus % invasion in treated cells) was 29.1%, the “% Invasion” value (MDA-MB-231 cells; MDA-MB-231) was 7.8% and the “No. Cells Invading Matrigel Insert” value (MDA-MB-231 cells; MDA-MB-231) was 18.0. The “No. Cells Migrating through Control Insert” value (MDA-MB-231 cells; MDA-MB-231) was 230.6, the “Cells expressing Pgp, +Doxorubicin (A)” value ([14]; compound 0.5 μM) was 15.86% and 14.65% and the “Cells expressing Pgp, No Doxorubicin (B)” value ([14]; compound 0.5 μM) was 4.44% and 4.13%. For the same compound, the “Cells expressing Pgp, +Doxorubicin (A)” value ([14]; compound 1 μM) was 18.89% and 28.73%, the “Cells expressing Pgp, No Doxorubicin (B)” value ([14]; compound 1 μM) was 4.38% and 4.69% and the “Cells expressing Pgp, +Doxorubicin (A)” value ([14]; compound 5 μM) was 18.19% and 14.65%. For the same compound, the “Cells expressing Pgp, No Doxorubicin (B)” value ([14]; compound 5 μM) was 4.40% and 4.05%, the “cells labelled for P-gp” value ([14]; without doxorubicin) was 4% and the “Anti-Serine Antibody FL Density” value (STAT-3; pSTAT3 Ser727, control 70.15) was 92.46. For the same compound, the “Anti-Tyrosine Antibody FL Density” value (STAT-3; pSTAT3 Tyr 705, control 43) was 37.24, the “Percentage Cell Death at 24 h, Du145” value ([15]; 5 mM) was 11% and the “Percentage Cell Death at 24 h, Du145” value ([15]; 10 mM) was 13%. The “Percentage Cell Death at 24 h, SKOV-3” value ([16]; 5 mM) was 8%, the “Percentage Cell Death at 24 h, SKOV-3” value ([16]; 10 mM) was 22% and the “Bcl2 label intensity, Perinuclear” value (Bcl-2; control 0) was 2. For the same compound, the “Bcl2 label intensity, Cytoplasmic” value (Bcl-2; control 1) was 1 and the “Bcl2 label intensity, Nuclear” value (Bcl-2; control 2) was 0.5.
